# Measurements as given in article PMC8876412 (Viruses, 2022).
# Tests used:
# [1] = system: CMV Towne (IE1/2, UL84, pp65); conditions: HFFs, 72 hpi; for level of viral proteins (pp65, UL84, IE1/2) by Western blot: 10 µM; for level of viral proteins UL84 and pp65 by Western blot: 3 µM; for viral protein expression by Western blot: concentration given only in Figure 1C
# [2] = system: pp28-luciferase recombinant Towne CMV; conditions: HFFs; tested at 3–30 µM
# pp28-luciferase CMV [3] = system: pp28-luciferase CMV
# pp28-luciferase CMV [4] = test: microbe, parasite or virus in culture; conditions: Human betaherpesvirus 5, Hepatocyte, read-out: EC50 in CMV-infected primary human hepatocytes
# [5] = system: ganciclovir resistant pp28-luciferase CMV; parameters: method as in ref 24 = [24]; conditions: cited from earlier work
# pp28-luciferase CMV [6] = test: Add-on and removal assays; conditions: 3 µM, added or removed at different times, luciferase at 72 hpi, MOI = 0.1 PFU/cell
smiles,measurement,setting,value
CC(C)NC(=O)C1CCN(C(=O)c2cc3ccccc3n2Cc2ccc(Cl)cc2)CC1 [Compound 3],"level of viral proteins (pp65, UL84, IE1/2) by Western blot",[1],no inhibitory activity
same,"inhibition of pp28-luciferase CMV (anti-CMV activity, in words)",[2],loss of anti-CMV activity even at 30 µM
O=C(NCCc1cccnc1)C1CCN(C(=O)c2cccn2Cc2ccc(Cl)cc2)CC1 [Compound 6],"level of viral proteins (pp65, UL84, IE1/2) by Western blot",[1],no reduction
"Nc1nc(O)c2ncn(COC(CO)CO)c2n1 [GCV, ganciclovir, reference compound]",Bliss Coefficient,"pp28-luciferase CMV [3]; combination of the labelled compound with Compound 8, ratio observed/expected fold inhibition",1.3
CC(C)NC(=O)C1CCCN(C(=O)c2cc3sccc3n2Cc2ccc(Cl)cc2)C1 (stereo not shown) [Compound 2],"inhibition of pp28-luciferase CMV (anti-CMV activity, in words)",[2],loss of anti-CMV activity
O=C(NCCc1ccccn1)C1CCN(C(=O)c2cccn2Cc2ccc(Cl)cc2)CC1 [Compound 5],"level of viral proteins (pp65, UL84, IE1/2) by Western blot",[1],no reduction
CC(C)NC(=O)C1CCN(C(=O)c2cc3sccc3n2Cc2ccc(Cl)cc2)CC1 [Compound 1],EC50,pp28-luciferase CMV [4],3.3 ± 0.7 µM
same,level of viral proteins UL84 and pp65 by Western blot,[1],reduced
same,viral protein expression by Western blot,[1],significant inhibition of protein expression
same,in vitro activity against ganciclovir resistant pp28-luciferase CMV,[5],low µM concentrations
O=C(NCCc1ccncc1)C1CCN(C(=O)c2cc3ccccc3n2Cc2ccc(Cl)cc2)CC1 [Compound 8],EC50,pp28-luciferase CMV [4],2.9 ± 0.1 µM
same,level of viral proteins UL84 and pp65 by Western blot,[1],reduced
same,calculated Bliss coefficient over all combinations,"pp28-luciferase CMV [3]; 8 with MLS8969, NFU1827, MLS8554, MLS8091 and GCV",1–1.3
same,combination effect (in words),pp28-luciferase CMV [3]; 8 with newly identified CMV inhibitors and GCV,additive
same,timing of maximal CMV inhibition,pp28-luciferase CMV [6],overlapped with that of GCV
CC(C)NC(=O)C1CCN(C(=O)c2cccn2Cc2ccc(Cl)cc2)CC1 [Compound 4],"inhibition of pp28-luciferase CMV (anti-CMV activity, in words)",[2],loss of anti-CMV activity even at 30 µM
O=C(NCCc1ccncc1)C1CCN(C(=O)c2cccn2Cc2ccc(Cl)cc2)CC1 [Compound 7],EC50,pp28-luciferase CMV [4],3.4 ± 1.3 µM
same,viral protein expression by Western blot,[1],significant inhibition of protein expression
same,timing of maximal CMV inhibition,pp28-luciferase CMV [6],overlapped with that of GCV
